Test results reported in the supplement of paper PMC11417369.
± gives the standard deviation of the averaged measurements. The list shows a part of the results.

System: PfAP2-EXP AP2 domain (GST-tagged)
Assay: gcPBM binding intensity (ln(normalized median fluorescence intensity)); higher = stronger DNA binding
Procedure, shortened: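 An Agilent 4 × 180k array of primer-extended double-stranded 36-bp intergenic genomic probes, with negative controls, was incubated for 1 h with GST-tagged P. falciparum DNA-binding domains expressed in E. coli. Alexa488 anti-GST antibody detected bound protein, scanned at 488 nm. Binding intensity is the highest Masliner-normalised natural-log median intensity across replicate spots of either probe orientation.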

Sequence | gcPBM binding intensity (ln)
TAACACTTTTTTTTTCGTACATATATTATATATATA [XGTACX_site5470] | 8.91 ± 0.26
TTTTTTTATATTATACGCACTAATATATATATATAT [XGTACX_negctrl_site40] | 9.95 ± 0.3
TTTTTATTAGGACATGCATACAAAATTAAAAAAAAT [TGCATGCA_site258] | 8.87 ± 0.4
ATATATATATTTAAGGTGCGATTTTGTTATATTTAA | 9.22
CTTATTTTATGTTATACACACAAAGAAAAAAAATAA [CACACA_site2165] | 8.65 ± 0.52
AATTATATTAATATATAATAAAATAGGATGTTATTT [XGTACX_negctrl_site309] | 8.26 ± 0.47
GTATATAATTTATGTGCACACACTCCTATTTTTAGC [CACACA_site49] | 9.12 ± 0.11
TTATTAAAATATTAAAGTACAAAAAAAATAAATAAA [XGTACX_site6507] | 8.63 ± 0.38
TTATGTATATTATAAATTAATACATTTAAATTAATA [CACACA_negctrl_site34] | 7.83 ± 0.5
TATTAATTTATTTGTTGTACGTAAATATGCTTGTTT [XGTACX_site6591] | 8.75 ± 0.41
AAAAAAAAAAAAAATTGTACCCAAATATTTTTGTAG [XGTACX_site8303] | 8.34 ± 0.43
TATATGTGATAACACGCACACAAATGTATATAATTT [CACACA_site2593] | 8.56 ± 0.38
ATAAAATAAAAATTCTGTACAGAATTAAAAAAATAT [XGTACX_site6961] | 8.84 ± 0.35
AAAAAAAAAAAACATACACACATTGAACTTTTATAT [CACACA_site3250] | 8.26 ± 0.52
TGTAGCATTTAATTCACACATAAAAAATGTATCCAT [CACACA_site4986] | 8.27 ± 0.4
AAAAAAAGTAAAAAGTGTACTTAATATATATATATA [XGTACX_site838] | 9.91 ± 0.45
TACAATATACCTACTTGTACACAAAATAAAAGTAGT [XGTACX_site6029] | 8.61 ± 0.2
TTTTATATAAATATCACACACACACGCATGTTTTAA [CACACA_site6187] | 8.63 ± 0.38
TACACACCTAACTATGCATGCATCAATATAGTGGAT [TGCATGCA_site443] | 9.72 ± 0.4

Sequence | gcPBM binding intensity (ln)
TATTCATGCATATACACACACATATATATATATTTT [CACACA_site3955] | 8.9 ± 0.45
ATCATAATTTATTATACACACAATACGTGACCTATT [CACACA_site6977] | 8.63 ± 0.36
AATGAAAAATTGTAATGTACATAAATAAATAAATAA [XGTACX_site4048] | 9.09 ± 0.3
AAAAAAAAATTAAACATACACACGTTACTATTTTTA [CACACA_site1687] | 8.07 ± 0.42
ATGAACATGTGACAATGTACATTTATATCTTAAGAA [XGTACX_site4960] | 8.66 ± 0.41
ATAATATATATATATATGTATGTATATATGTATGTA [GTGCAC_negctrl_site575] | 8.4 ± 0.39
TACACCCAGAAATGCACACACATATATATATATATA [CACACA_site5289] | 9.98 ± 0.35
TATATATATATAATAGCATGCTATATTATATATATA [TGCATGCA_site886] | 9.64 ± 0.13
TATTCTTATTATTACACACACAATTATATTTACCCC [CACACA_site6381] | 9.14 ± 0.66
TATTTTTTAATTGTTTCACACATTATTTTTTACATA [CACACA_site6078] | 8.63 ± 0.4
TTAACATAAATTGTGTCATTTTTTTTTTTTTTTTTA [CACACA_negctrl_site1221] | 8.03 ± 0.54
CTAATAAAAAAAAAAAGTACATATGACAATATAAAG [XGTACX_site1598] | 8.95 ± 0.52
AATTTTTTTTTCTTTTGTACGTAAATATGTGTAGGC [XGTACX_site215] | 8.72 ± 0.38
TTAACACATTTTATGTGTACTCATATGATTTAAAAT [XGTACX_site7516] | 8.45 ± 0.25
TTAAAATGAAGAAGTGCACACATATATATATTTATA [CACACA_site8063] | 9.06 ± 0.26
TATATATTAGTGTTGACACACACAAAAAAAAAAAAA [CACACA_site8392] | 8.53 ± 0.45
TATAAACAGACGAAAACACACATATGTAGATATATA [CACACA_site6371] | 8.94 ± 0.55
TTATAAATGTGCGTAGTGCATAAACAAAAAAAAAAT | 9.31 ± 0.014
ATTTTTTTTTTTTTTTTTTTTTTTTATGAATGTTAT [CACACA_negctrl_site1319] | 7.92 ± 0.54

Sequence | gcPBM binding intensity (ln)
ATCAGGCAAAATTTTTGTACATATATATTTTATTTT [XGTACX_site1245] | 9.12 ± 0.61
ATTTTTTTTTTTTTTTTTTTTTTTTTTTTTTTTTTT [CACACA_negctrl_site1364] | 9.04 ± 0.56
AGATTTCAAGGTAATAGATCAATTTTAATTTGTAAA [CACACA_negctrl_site514] | 7.97 ± 0.42
TGTATAAAAAACTAATGTACAAATGACAAGATATCT [XGTACX_site4600] | 8.7 ± 0.66
AATGCACAGCTCTTAGGCAAAAGTGGGTATTTACAC [GTGCAC_negctrl_site579] | 8.81 ± 0.28
CATTTAGTTCATACTATGCACACTACGTATATTTTT [CACACA_site2694] | 8.98 ± 0.26
ATTTAATACAAATACACACACAAATATGTACCTATA [CACACA_site7718] | 8.51 ± 0.35
ACAATTCATTAGAATTGTACAAAAGGATGAAGCGAA [XGTACX_site5242] | 9.1 ± 0.43
ATTTTTTTTTTTTAATTTGATATTTGCGTTTATATA [CACACA_negctrl_site1305] | 8.45 ± 0.56
AATATATGATAATTTTTTTTTTTTTTTTTTAAATAT [CACACA_negctrl_site452] | 7.88 ± 0.6
AACAATTGTTAAAGGTGTACCATATGTATATAAGAA [XGTACX_site5723] | 9.04 ± 0.54
AGACGTAATAATTGTTGTACATAAAAAAATAAGAAA [XGTACX_site7594] | 8.9 ± 0.28
AAAAAATGTTAAAAAAGTACTTTCTTTATTTAATAA [XGTACX_site2908] | 8.07 ± 0.4
ATGATATTATAAAAAAGTACATATGTATATAATTAT [XGTACX_site7652] | 8.88 ± 0.45
TGTGTTAGCAAAAAAGTGCACAGGGAAAAAAAAATA [GTGCAC_site9397] | 9.24 ± 0.29
TAAACCTATTATACGGGTACTTATTTGATTCTTATA [XGTACX_site5292] | 8.38 ± 0.44
ACAAATGGAACTCCTACAAAAAATTTCCATAATATT [XGTACX_negctrl_site132] | 8.2 ± 0.38
AAAAGCTTAAAAAATTGTACATAAATGAATAAATAT [XGTACX_site5201] | 8.69 ± 0.31
